Results published in PubChem BioAssay AID1240 (Sanford-Burnham Center for Chemical Genomics, 2008).
The whole screen tested about 50,000 compounds, of which about 800 (1.6%) showed an effect of 50% or more. Some of the results follow.

Biological target: Bcl-2-like protein 10 (Homo sapiens) (UniProt Q9HD36)
Assay: TR3 peptide-Bcl-B binding displacers, biochemical primary FP assay, phenotype converters (AID 1240);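 note: 0% = Bcl-B with tracer peptide and DMSO and 100% = tracer peptide lacking Bcl-B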
Details: GST-Bcl-B / FITC-TR3 peptide fluorescence polarization; stronger effect = higher value; compound at 3.75 mg/L

UniProt Q9HD36, sequence (Q9HD36 whole entry, looked up): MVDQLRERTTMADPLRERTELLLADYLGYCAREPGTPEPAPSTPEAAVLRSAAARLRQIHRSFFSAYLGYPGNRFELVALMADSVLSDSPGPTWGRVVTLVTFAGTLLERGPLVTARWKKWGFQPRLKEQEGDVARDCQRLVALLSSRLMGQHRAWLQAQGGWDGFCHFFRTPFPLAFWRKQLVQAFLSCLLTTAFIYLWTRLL

| SMILES | displacement |
| --- | --- |
| CCSC1=C(C#N)C(c2cccc3ccccc23)CC(=O)N1 (stereo not given) | 0% |
| c1cc(Nc2ncnc3sc4c(c23)CCC4)ccn1 | -12.6% |
| CCC(OC(=O)/C=C/c1ccco1)C(=O)Nc1ccc(S(N)(=O)=O)cc1 (stereo not given) | 14% |
| COc1ccc(C(=O)CCNc2ccc(C)cc2)cc1 | -8.1% |
| Cc1[nH]n(-c2ccccc2)c(=O)c1/C=N/N(C)C | 6.3% |
| CC1CN(CC(O)COc2ccccc2C(C)(C)C)CC(C)O1 (stereo not given) | 7.8% |
| CC(C)(C)c1csc(N/N=C/c2cccnc2)n1 | -7.2% |
| c1csc(C2Nc3cccc4cccc(c34)N2)c1 | 32.9% |
| O=[N+]([O-])c1ccc(-n2ncnc2-c2cccc(Br)c2)c(Cl)c1 | 15.1% |
| COc1ccccc1N1CCN(/N=C\c2ccc(N(C)C)cc2)CC1 | -1% |
| Cc1cc(N2C(=O)NC(=O)/C(=C\c3ccc([N+](=O)[O-])o3)C2=O)ccc1Br | -14.2% |
| Cc1ccc2nc(-c3ccc(NC(=O)/C=C\C(=O)O)cc3)sc2c1 | 6.1% |
| COc1ccc(NC(=O)C2CC(=O)N(CCc3ccccc3)C(=Nc3ccccc3)S2)cc1 (stereo not given) | -7.4% |
| CN1C(=O)/C(=c2\sc3nc(-c4ccccc4)c(-c4ccccc4)n3c2=O)c2ccccc21 | 6.9% |
| Cc1cc(I)ccc1S(=O)(=O)N1CCN(C)CC1 | -7.4% |
| Cc1cc(N2C(=O)NC(=O)/C(=C\c3ccc(N4CCOCC4)o3)C2=O)ccc1Br | -33.9% |
| CCOC(=O)C(Cc1cc(C)c(CC(C(=O)OCC)C(=O)OCC)cc1C)C(=O)OCC | -8.7% |
| O=C1/C(=C\c2ccc(-c3ccccc3[N+](=O)[O-])o2)SC(=S)N1C1CCS(=O)(=O)C1 (stereo not given) | 31.8% |
| N#CC1=C(N)SC(N)=C(C#N)C1c1cccc(Cl)c1 | -31.8% |
| CCOC(=O)Oc1ccc2c(-c3ccccc3)cc(=O)oc2c1 | 10.5% |
| COc1ccc(C(=O)NCCCNc2ccc([N+](=O)[O-])cc2Cl)cc1OC | 10.1% |
| COC(=O)c1cc(C(=O)Nc2cc(OC)ccc2OC)cc([N+](=O)[O-])c1 | 12.7% |

| SMILES | displacement |
| --- | --- |
| Cc1cccc(OCC(=O)Nc2ccccc2[N+](=O)[O-])c1C | -0.6% |
| Cc1cc(Cl)ccc1NC(=O)COc1ccc(Br)cc1 | -0.6% |
| N#C/C(=C\c1ccccc1C(F)(F)F)c1nn(CCO)c(N)c1C#N | -1.8% |
| O=C(COc1ccc(Cl)cc1)Nc1ccc2oc(-c3ccccc3F)nc2c1 | 6.6% |
| COc1ccc(/C=N/Nc2cc(OC)ncn2)cc1 | -5.1% |
| CC(C)(C)c1ccc(/C=N/NC(=O)Cc2cccc3ccccc23)cc1 | 15.7% |
| Cc1cc(N2CC(C)OC(C)C2)n2c(nc3ccccc32)c1C#N (stereo not given) | -6% |
| COc1ccc(OC)c(S(=O)(=O)n2ccnc2C(C)C)c1 | 1.6% |
| COc1ccc(/C=C2/SC(=Nc3ccc(F)cc3)NC2=O)c(OC)c1 | 11.6% |
| COc1ccc(NC(=O)C(=O)NCc2ccc(C)cc2)cc1 | -0.8% |
| CC1CC(Nc2ccccc2)c2ccccc2N1C(=O)c1ccccc1 (stereo not given) | 5.9% |
| COC(=O)c1ccccc1NC(=O)CN(c1ccc(C)cc1)S(=O)(=O)c1ccc(F)cc1 | 11.7% |
| CCOC(=O)c1sc2nccc(N(C)C)c2c1N | -24.6% |
| COc1ccccc1C1/C(=C(/O)c2ccccc2)C(=O)C(=O)N1c1cccc(Br)c1 (stereo not given) | -10.1% |
| Cc1ccc(C=Nc2ccc3nc(-c4ccc(Cl)cc4Cl)[nH]c3c2)o1 | 13.4% |
| COC(=O)c1c(C)oc2ccc(OCc3ccc(Cl)cc3)cc12 | 5.2% |
| Cc1cccc(C(=O)Nc2cccc(Cl)c2C)c1 | -17.1% |
| CC1=NN(c2cccc(C(=O)O)c2)C(=O)/C1=C\c1ccc(-c2ccc3c(c2)COC3=O)o1 | 10% |
| COc1ccc(-c2cc(C(=O)N/N=C\c3ccc(C(C)C)cc3)[nH]n2)cc1 | -7.9% |
| CC1(C)CC(=O)C2=C(C1)OC(N)=C(C#N)C2c1c2ccccc2cc2ccccc12 (stereo not given) | -8.3% |
| COc1ccc(CCN2C(=O)CC(N3CCN(c4ccc(Cl)cc4)CC3)C2=O)cc1OC (stereo not given) | 1.2% |
| O=S1(=O)N=C(N2CCN(Cc3ccccc3)CC2)c2ccccc21 | 9.5% |

| SMILES | displacement |
| --- | --- |
| CCOc1ccc(NC(=O)/C(=C/c2cccs2)NC(=O)c2cccs2)cc1 | -12.6% |
| CN=C(NC)SC1CC(=O)N(c2ccccc2)C1=O (stereo not given) | -6.7% |
| COc1ccc(N(CC(=O)NCc2ccccc2)S(C)(=O)=O)cc1Cl | 0.5% |
| Clc1ccc(-c2nc(-c3ccc(Br)cc3)no2)c(Cl)c1 | 2.7% |
| O=C(O)CCC(=O)Nc1ccc(S(=O)(=O)N2CCCCCC2)cc1 | 3% |
| CCCOc1ccc(C(=O)Nc2ccc(O)c(-c3nc4cc(C)c(C)cc4o3)c2)cc1 | 11.5% |
| COc1ccc(C(=O)Nc2ccncc2)cc1 | 2.6% |
| Nc1c(NCCCN2CCOCC2)c2ccccc2oc1=O | -4.2% |
| Cc1cc(OCCN2CCCCC2)ccc1Cl | 5.2% |
| O=C(CN1C(=O)/C(=C\c2ccccc2Cl)SC1=S)Nc1cc([N+](=O)[O-])ccc1O | 33.3% |
| O=C(/C=C/c1cn(-c2ccccc2)nc1-c1cccs1)c1cccs1 | 9.4% |
| NC(=O)c1ccccc1N=Cc1cc(Cl)cc(Cl)c1O | -7.2% |
| Cc1ccc(S(=O)(=O)Nc2ccc(O)c(C)c2)cc1 | 9.7% |
| C/C(=N\Nc1ncc(Br)cn1)c1cccc([N+](=O)[O-])c1 | -11.6% |
| O=C(Nc1cc(Cl)cc(Cl)c1)S(=O)(=O)c1ccccc1 | 10.2% |
| S=C(NNc1nc2ccccc2s1)NC1CCCCC1 | 13.7% |
| O=C(COc1cccc(Cl)c1)N=Nc1c(O)[nH]c(=O)[nH]c1=O | 6.3% |
| O=C(O)c1cc(O)ccc1NC(=O)C(c1ccccc1)c1ccccc1 | 10.4% |
| O=C(O)c1cccc(N2C(=O)c3ccc4c5c(ccc(c35)C2=O)CC4)c1 | 45.4% |
| CN1CCN(C(=O)c2ccccc2NC(=O)c2ccc(Cl)cc2Cl)CC1 | 5.1% |
| COc1ccc(OC)c(NC(=O)c2cnccn2)c1 | 4.8% |
| COc1cccc(-c2nc3cc(NC(=O)c4cc5ccccc5o4)ccc3o2)c1 | -8.8% |

| SMILES | displacement |
| --- | --- |
| O=C1NC(=Nc2ccc(F)cc2)S/C1=C\c1cccs1 | 8.3% |
| O=C(Nc1cccc(NC(=O)c2ccc(Cl)cc2Cl)c1)c1ccccc1F | 10% |
| Cn1c(SC(c2ccccc2)c2ccccc2)nc2ccccc21 | -15.4% |
| CC(C)(C)NC(=O)c1sc2ccccc2c1Cl | -7.2% |
| CCOCCOC(=O)c1cccc(NC(=O)/C=C/c2ccc(Cl)cc2Cl)c1 | 4.7% |
| CN1C(=O)/C(=C\c2ccccc2Sc2ccc(Cl)cc2)SC1=S | -6.2% |
| COc1ccc([N+](=O)[O-])cc1-c1ccc(/C=c2/sc3nc4cc(C)c(C)cc4n3c2=O)o1 | -6% |
| C/C(=N\NS(=O)(=O)c1ccccc1)c1cccc(Br)c1 | 2.9% |
| Cc1ccccc1NC(=O)C1CCC(=O)N1 (stereo not given) | 5.1% |
| CSc1ccc(S(=O)(=O)N(CC(=O)Nc2ccc(C)cc2)c2ccc(C)cc2)cc1 | 13.6% |
| C=CCN1C(=O)/C(=C\c2ccc(OCc3ccccc3Cl)cc2)SC1=S | 95.7% |
| CCOC(=O)CC(=O)Nc1ccc(C(=O)OC)cc1 | 9.8% |
| O=C(CC1S/C(=N\N=C2/CCCc3ccccc32)NC1=O)Nc1ccccc1C(F)(F)F (stereo not given) | 11.6% |
| CCCOc1ccc(C(=O)Nc2scc(-c3ccc(C)cc3)c2C(=O)OCC)cc1 | 25.6% |
| O=S(=O)(O)c1cc(OS(=O)(=O)c2ccccc2)cc2ccccc12 | -3% |
| O=C(CNC(=O)c1ccc(Br)cc1)c1ccc(-c2ccccc2)cc1 | 7.2% |
| CCOC(=O)CCC(NC(=O)c1ccc(NCN2C(=O)c3ccccc3C2=O)cc1)C(=O)OCC (stereo not given) | -10.4% |
| O=C(/C=C/c1ccc(Cl)cc1)Nc1ccc2c(c1)OCO2 | 11.4% |
| COC(=O)C1=C(C)N(C)C(C)=C(C(=O)OC)C1c1cccc(F)c1 | -8.3% |
| O=C1NC(c2ccccc2OCc2ccccc2)Nc2ccccc21 (stereo not given) | 11.4% |
| Cc1nn(-c2ccc(C(F)(F)F)cn2)c(C)c1Oc1ccccc1O | 0.4% |
| O=C(Nc1nc(-c2ccc(Cl)cc2)cs1)C1CCCC1 | -8.8% |

| SMILES | displacement |
| --- | --- |
| CCOC(=O)C1=C(C)N(CCOC)C(=O)/C1=C\c1ccccc1[N+](=O)[O-] | 3.2% |
| COc1ccc(C)cc1NC(=O)c1ccc(-n2cnnn2)cc1 | -14.6% |
| O=C(NC(C(=O)Nc1nccs1)C12CC3CC(CC(C3)C1)C2)c1ccccc1 (stereo not given) | -8.5% |
| CC1CCCN(CC(O)COc2ccc(C34CC5CC(CC(C5)C3)C4)cc2)C1 (stereo not given) | -14.4% |
| CCCCOc1ccccc1NC(=O)c1cc(SC)ccc1Cl | 0.2% |
| COc1ccc(OC)c(C2NC(=O)NC(C)=C2C(=O)Nc2ccc(C)c(Cl)c2)c1 (stereo not given) | -3.1% |
| O=C(Nc1ccc2nc(SCCOc3ccccc3)sc2c1)c1ccccc1Cl | -3.4% |
| CCC(=O)Nc1ccc(NC(=O)c2ccc(OCC(C)C)cc2)cc1 | 9.6% |
| O=C(O)c1ccccc1C(=O)Nc1ccc2nc(SCc3nc4ccccc4[nH]3)sc2c1 | -13.4% |
| O=C(O)Cn1c(SCc2cccc3ccccc23)nc2ccccc21 | 3% |
| CC1(C(=O)NCc2cccs2)CC1(Br)Br (stereo not given) | -9.2% |
| COc1ccc(OC)c(N(CC(=O)Nc2ccc(I)cc2)S(C)(=O)=O)c1 | 13.1% |
| Cc1n[nH]c(=S)n(/N=C/c2ccco2)c1=O | -5.1% |
| CCn1c(=O)c2c(n3c(=S)[nH]nc13)-c1ccccc1CC21CCCCC1 | -13.3% |
| COc1ccc(CSc2nc3ccccc3s2)cc1 | 11.5% |
| CN(C)c1ccc(/C=C/c2cc(C(F)(F)F)[nH]c(=O)n2)cc1[N+](=O)[O-] | 14.7% |
| COCCOC(=O)c1ccc(NC(=O)COc2ccc(C)c(C)c2)cc1 | -4.5% |
| O=C(COc1ccccc1Cl)NCc1ccc2c(c1)OCO2 | -4% |
| CCOC(=O)Cn1c(-c2nonc2N)nc2ccccc21 | -5.3% |
| CN(C)CCOC(=O)CCc1cc(C(C)(C)C)c(O)c(C(C)(C)C)c1 | -13.5% |
| O=C1OC(/C=C/c2ccccc2)=NC/1=C/c1ccccc1 | 13.6% |
| CCOC(=O)C1=C(c2ccccc2)NC(=S)NC1c1ccc(OC(C)C)cc1 (stereo not given) | 10.7% |
